Where two headings read alike, the source gives them in different places.
T1: membrane-type IL-6R on cells (U266B1, TF-1, Hep3B) (UniProt P08887 20-468, limits assumed)
T1 sequence (looked up): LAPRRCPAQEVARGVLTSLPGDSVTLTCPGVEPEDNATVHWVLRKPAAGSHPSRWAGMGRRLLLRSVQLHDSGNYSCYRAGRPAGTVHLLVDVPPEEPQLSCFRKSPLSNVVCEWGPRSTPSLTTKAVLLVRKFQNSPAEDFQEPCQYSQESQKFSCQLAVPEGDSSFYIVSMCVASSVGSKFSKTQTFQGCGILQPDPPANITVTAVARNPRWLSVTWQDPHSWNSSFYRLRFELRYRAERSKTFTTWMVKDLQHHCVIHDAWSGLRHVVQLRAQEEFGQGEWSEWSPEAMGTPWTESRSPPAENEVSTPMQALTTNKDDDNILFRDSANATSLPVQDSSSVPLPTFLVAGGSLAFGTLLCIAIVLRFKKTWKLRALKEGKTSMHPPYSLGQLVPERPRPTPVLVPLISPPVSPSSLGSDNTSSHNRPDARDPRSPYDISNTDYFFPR

T2: hIL-6R.His (human interleukin-6 receptor with His tag) (human, UniProt P08887 20-365)
T2 construct: Soluble recombinant antigen expressed in 293E cells; The entry includes the His tag
T2 sequence: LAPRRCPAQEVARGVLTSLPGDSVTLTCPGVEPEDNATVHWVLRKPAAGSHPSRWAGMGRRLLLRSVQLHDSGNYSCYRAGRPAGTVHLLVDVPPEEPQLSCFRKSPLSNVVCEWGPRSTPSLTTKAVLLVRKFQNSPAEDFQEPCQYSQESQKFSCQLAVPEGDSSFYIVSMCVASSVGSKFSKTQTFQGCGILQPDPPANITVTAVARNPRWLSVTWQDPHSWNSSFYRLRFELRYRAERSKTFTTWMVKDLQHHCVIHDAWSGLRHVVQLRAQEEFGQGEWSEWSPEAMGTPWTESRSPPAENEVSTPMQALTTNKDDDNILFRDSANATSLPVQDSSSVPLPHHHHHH

T3: hIL-6R.BP15 (human interleukin-6 receptor with BP15 tag, biotinylated) (human, UniProt P08887 20-365, site-directed biotinylation on the BP15 tag)
T3 sequence: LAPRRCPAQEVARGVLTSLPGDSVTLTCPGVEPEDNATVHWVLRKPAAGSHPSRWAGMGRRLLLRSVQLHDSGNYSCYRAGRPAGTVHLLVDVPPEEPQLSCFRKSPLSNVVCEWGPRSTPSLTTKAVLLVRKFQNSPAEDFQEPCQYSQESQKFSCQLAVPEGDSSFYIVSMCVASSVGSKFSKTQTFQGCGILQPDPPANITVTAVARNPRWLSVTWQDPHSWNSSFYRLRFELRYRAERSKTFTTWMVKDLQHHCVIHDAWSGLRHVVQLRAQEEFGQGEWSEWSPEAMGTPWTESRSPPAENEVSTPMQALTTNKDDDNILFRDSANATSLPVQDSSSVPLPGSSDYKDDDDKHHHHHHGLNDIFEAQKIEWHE


Experiments:
[1] = molecular target: T1, membrane-type IL-6R on cells (U266B1, …); experiment: cell-based or functional assay
[2] = molecular target: T2, hIL-6R.His (human interleukin-6 …); experiment: SPR (Biacore T200), antibody captured by anti-human capture antibody, hIL-6R.his as analyte, 1:1 Langmuir
Excerpt: Human anti-capture antibodies were covalently coupled onto Biosensor chip CM5 (Cat.# BR-1000-12, GE) in a Biacore instrument (Biacore T200, GE) with Human Anti-Capture Kit (Cat. #BR-1008-39, GE) according to manufacturer's protocol, thereby certain amounts of antibodies to be tested were captured. Antigens (hIL-6R.his and cIL-6R.FH) at a series of concentration gradients were then flowed through the surface of the chip . The reaction signals were detected in real time using Biacore instrument (Biacore T200, GE) to obtain binding and dissociation curves.
After each cycle of dissociation, the biochips were washed and regenerated with the regeneration solution provided in the Human Anti-Capture Kit. The amino coupling kit used in the experiment was purchased from GE (Cat. #BR-1000-50, GE) and the buffer was HBS-EP+10×buffer solution (Cat.#BR-1006-69, GE), diluted to 1×(pH 7.4) with D.I. water.
The experimental data were fitted with BlAevaluation version 4.1 and GE software (1:1) Langmuir model to obtain the affinity values.

[3] = molecular target: T3, hIL-6R.BP15 (human interleukin-6 …); experiment: blocking ELISA: coated gp130, IL-6.his and IL-6R.BP15 (0.06 ug/ml) with serially diluted antibody, HRP-streptavidin, OD450; blocked: binding of the IL-6/IL-6R complex to gp130; unit from the abscissa
Description: (§1) The complex of IL-6 and IL-6R can bind to GP130. The assay will evaluate if the selected antibodies were able to block the formation of IL-6/IL-6R/gp130 complex by binding to IL-6R. The plates were coated with 1 μg/ml gp130 (diluted in PBS) at 4° C. overnight. The coating solution was discarded, and plates were blocked with 5% skim milk in PBS at 37° C. for 2-3h. After blocking, the plates were washed 3 times with washing buffer PBST (0.1% Tween-20 in PBS).
(§2) IL-6.his and IL-6R.BP15 were diluted with 1% BSA in PBS to a concentration of 0.06 μg/ml. Starting at 50 ug/ml, IL-6R antibodies were 1:3 serially diluted in dilution buffer and Both testing antibody samples and IL-6/IL-6R complex were added to the plate followed by lh incubation at 37° C. After that, the plates were washed for 3 times with washing buffer PBST (0.1% Tween-20 in PBS).
(§3) 1:2000 diluted Secondary antibody HRP streptavidin (Jackson, 016-030-084) was added to the plate followed by 1 h incubation at 37° C.After incubation and wash,. TMB was used for development. OD₄₅₀ values were read.

[4] = molecular target: T3, hIL-6R.BP15 (human interleukin-6 …); experiment: blocking ELISA: coated IL-6.Fc, 1 ng/ul biotinylated IL-6R.BP15 with serially diluted antibody, HRP-streptavidin, OD450 falls with concentration; blocked ligand IL-6.Fc; sheet heads the row EC50; unit from the abscissa
Description: The formation of IL-6R/IL-6 complex can be blocked by the binding of IL-6R antibody to IL-6R, indicating the downstream cell signaling could be blocked by preventing IL-6/IL-6Rcomplex formationon the cell membrane. All of the expressed the purified antibodies were tested for their abilities to block the binding between IL-6 and IL-6R by ELISA. The procedures was descripted as follows:
The plates were coated with100 μl of 2 ng/μl IL-6.Fc at 4° C. overnight, and blocked with 2% skim milk at 37° C. for 1 hour. The plates were then washed, incubated with 100 μl of serial diluted testing samples with and 1 ng/μl IL-6R.BP15. After 1 hourincubation at 37° C,. the plates were washed andHRP-streptavidin (Jackson, 016-030-084) diluted at 1:4000 was added to the plate followed by incubation. After wash and 100 μl TMB develoment at room temperature for 5 min. 100 μl of 1M H₂SO₄ was added to terminate the reaction. The OD₄₅₀ values were read.

[5] = molecular target: T3, hIL-6R.BP15 (human interleukin-6 …); experiment: blocking ELISA: coated gp130, IL-6.his and IL-6R.BP15 (0.06 ug/ml) with serially diluted antibody, HRP-streptavidin, OD450; blocked: binding of the IL-6/IL-6R complex to gp130; unit from the abscissa; remark: listed apart in the source
Description: as §1, §2, §3

EC50, blocking effect on IL-6-stimulated TF-1 proliferation [1] [nM]	Kd [2] [nM]	koff [2] [s⁻¹]	kon [2] [M⁻¹ s⁻¹]	IC50 [3] [µg/mL]	EC50 [4] [µg/mL]	IC50 [5] [µg/mL]	Binder
0.41	0.129	0.000164	1.28e+06	0.0343	0.128	–	1764 VHH-hFc fusion protein (Fc fusion, expressed in 293E cells and purified on protein A. No linker is stated; also called IL-6R single domain antibody 1764; IL-6R antibody 1764) EVQLVESGGGLVQAGGSLRLSCEASGNIFKINVMGWYRQAPGKQREWVAAIISGGSTNYADSVKGRFTISRDNAKNTVYLQMNSLKPEDTAVYYCNAILTYNDYDLGSDYWGQGTQVTVSS[here human IgG1 Fc with changes without letters]
0.37	0.125	0.00015	1.2e+06	–	–	0.0433	1764-mu4 VHH-hFc fusion protein (Fc fusion, also called variant 4 (E23A, Q44G, Q116L)) EVQLVESGGGLVQAGGSLRLSCAASGNIFKINVMGWYRQAPGKGREWVAAIISGGSTNYADSVKGRFTISRDNAKNTVYLQMNSLKPEDTAVYYCNAILTYNDYDLGSDYWGQGTLVTVSS[here human IgG1 Fc with changes without letters]
–	0.101	0.000111	1.1e+06	–	–	–	1764-mu5 VHH-hFc fusion protein (Fc fusion, also called variant 5 (E23A, N96A, A97F, Q116L)) EVQLVESGGGLVQAGGSLRLSCAASGNIFKINVMGWYRQAPGKQREWVAAIISGGSTNYADSVKGRFTISRDNAKNTVYLQMNSLKPEDTAVYYCAFILTYNDYDLGSDYWGQGTLVTVSS[here human IgG1 Fc with changes without letters]
–	0.143	0.000144	1.01e+06	–	–	–	1764-mu8 VHH-hFc fusion protein (Fc fusion, also called variant 8 (E23A, Q44G, V78L, N96A, A97F, Q116L)) EVQLVESGGGLVQAGGSLRLSCAASGNIFKINVMGWYRQAPGKGREWVAAIISGGSTNYADSVKGRFTISRDNAKNTLYLQMNSLKPEDTAVYYCAFILTYNDYDLGSDYWGQGTLVTVSS[here human IgG1 Fc with changes without letters]
–	0.131	0.000117	897000	–	–	–	1764-mu7 VHH-hFc fusion protein (Fc fusion, also called variant 7 (A14P, E23A, V78L, K86R, N96A, A97F, Q116L)) EVQLVESGGGLVQPGGSLRLSCAASGNIFKINVMGWYRQAPGKQREWVAAIISGGSTNYADSVKGRFTISRDNAKNTLYLQMNSLRPEDTAVYYCAFILTYNDYDLGSDYWGQGTLVTVSS[here human IgG1 Fc with changes without letters]
0.344	0.126	0.000154	1.23e+06	–	–	0.0542	1764-mu2 VHH-hFc fusion protein (Fc fusion, also called variant 2 (E23A, Q44G)) EVQLVESGGGLVQAGGSLRLSCAASGNIFKINVMGWYRQAPGKGREWVAAIISGGSTNYADSVKGRFTISRDNAKNTVYLQMNSLKPEDTAVYYCNAILTYNDYDLGSDYWGQGTQVTVSS[here human IgG1 Fc with changes without letters]
0.447	0.105	0.000128	1.23e+06	0.0405	–	–	1764-mu1 VHH-hFc fusion protein (Fc fusion, also called variant 1 (A14P, K86R)) EVQLVESGGGLVQPGGSLRLSCEASGNIFKINVMGWYRQAPGKQREWVAAIISGGSTNYADSVKGRFTISRDNAKNTVYLQMNSLRPEDTAVYYCNAILTYNDYDLGSDYWGQGTQVTVSS[here human IgG1 Fc with changes without letters]
–	0.142	0.000121	853000	–	–	–	1764-mu9 VHH-hFc fusion protein (Fc fusion, Joining the two entries may therefore repeat these five residues; also called variant 9 (A14P, E23A, Q44G, V78L, K86R, N96A, A97F, Q116L)) EVQLVESGGGLVQPGGSLRLSCAASGNIFKINVMGWYRQAPGKGREWVAAIISGGSTNYADSVKGRFTISRDNAKNTLYLQMNSLRPEDTAVYYCAFILTYNDYDLGSDYWGQGTLVTVSS[here human IgG1 Fc with changes without letters]
0.603	0.2	0.000245	1.23e+06	–	–	0.066	1764-mu6 VHH-hFc fusion protein (Fc fusion, also called variant 6 (A14P, E23A, Q44G, V78L, K86R, Q116L)) EVQLVESGGGLVQPGGSLRLSCAASGNIFKINVMGWYRQAPGKGREWVAAIISGGSTNYADSVKGRFTISRDNAKNTLYLQMNSLRPEDTAVYYCNAILTYNDYDLGSDYWGQGTLVTVSS[here human IgG1 Fc with changes without letters]
0.354	–	–	–	0.0304	0.131	0.0263	20A11-Fc fusion protein (Fc fusion, Positive control antibody) EVQLVESGGGLVQPGGSLRLSCAASGSVFKINVMAWYRQAPGKGRELVAGIISGGSTSYADSVKGRFTISRDNAKNTLYLQMNSLRPEDTAVYYCAFITTESDYDLGRRYWGQGTLVTVSS[here human IgG1 Fc with changes without letters]
